Experimental data: patent publication US10160764B2 (priority 2016, dated 2018)

tested on: influenza virus Hubei; test: microbe, parasite or virus in culture; type: cell-based; settings: unidentified influenza virus, MDCK, 48 h, read-out: NA_Hubei EC50 (μM)

Compared with `O=C1c2c(O)c(=O)cnn2C(C(c2ccccc2)c2ccccc2)C2OCCCN12` (single isomer, unassigned) [Example 19B, 12-benzhydryl-7-hydroxy-3,4,12,12a-tetrahydro-2H-pyridazino[1′,6′:4,5]pyrazino[2,1-b][1,3]oxazine-6,8-dione], `O=C1c2c(O)c(=O)cnn2[C@@H](C(c2ccccc2)c2ccccc2)[C@H]2CCCN12` [Example 10, (9aR,10S)-10-benzhydryl-4-hydroxy-8,9,9a,10-tetrahydro-7H-pyrrolo[1′,2′:4,5]pyrazino[1,2-b]pyridazine-3,5-dione] is 6-fold lower in EC50: 0.49 µM for the first, 0.082 µM for the second. The second is the more potent here.

`O=C1c2c(O)c(=O)cnn2C(C(c2ccccc2)c2ccccc2)N2CCCCN12` (stereo not shown) [Example 1, 12-benzhydryl-4-hydroxy-7,8,9,10-tetrahydro-12H-dipyridazino[1,2-a:1′,6′-d][1,2,4]triazine-3,5-dione] and `O=C1c2c(O)c(=O)cnn2C(C(c2ccccc2)c2ccccc2)N2CCCCCN12` (stereo not shown) [Example 6, 13-benzhydryl-4-hydroxy-8,9,10,11-tetrahydro-7H,13H-pyridazino[1′,6′:4,5][1,2,4]triazino[1,2-a][1,2]diazepine-3,5-dione] are within 1.5-fold of each other in EC50: 0.61 µM for the first, 0.77 µM for the second.

First: O=C1c2c(O)c(=O)cnn2C(C(c2cccc(F)c2)c2cccc(F)c2)N2CCCCN12 (stereo not shown) [Example 2, 12-(bis(3-fluorophenyl)methyl)-4-hydroxy-7,8,9,10-tetrahydro-12H-dipyridazino[1,2-a: 1′,6′-d][1,2,4]triazine-3,5-dione]
Second: O=C1c2c(O)c(=O)cnn2[C@H](C(c2cccc(F)c2)c2cccc(F)c2)N2CCCCN12 [Example 8, (R)-12-(bis(3-fluorophenyl)methyl)-4-hydroxy-7,8,9,10-tetrahydro-12H-dipyridazino[1,2-a:1′,6′-d][1,2,4]triazine-3,5-dione]
The EC50 of the first is 2.4-fold lower: 0.27 µM for the first, 0.66 µM for the second. The first is the more potent here.

Compared with `O=C1c2c(O)c(=O)cnn2C(C(c2ccc(Cl)cc2)c2ccc(Cl)cc2)N2CCCCN12` (stereo not shown) [Example 3, 12-(bis(4-chlorophenyl)methyl)-4-hydroxy-7,8,9,10-tetrahydro-12H-dipyridazino[1,2-a:1′,6′-d][1,2,4]triazine-3,5-dione], `O=C1c2c(O)c(=O)cnn2C(C(c2ccc(F)cc2)c2ccc(F)cc2)N2CCCCN12` (stereo not shown) [Example 5, 12-(bis(4-fluorophenyl)methyl)-4-hydroxy-7,8,9,10-tetrahydro-12H-dipyridazino[1,2-a: 1′,6′-d][1,2,4]triazine-3,5-dione] is 2.1-fold lower in EC50: 0.57 µM for the first, 0.27 µM for the second. The second is the more potent here.

Going from `O=C1c2c(O)c(=O)cnn2C(C(c2cccc(Cl)c2)c2cccc(Cl)c2)N2CCCCN12` (stereo not shown) [Example 4, 12-(bis(3-chlorophenyl)methyl)-4-hydroxy-7,8,9,10-tetrahydro-12H-dipyridazino[1,2-a:1′,6′-d][1,2,4]triazine-3,5-dione] to `O=C1c2c(O)c(=O)cnn2[C@@H](C(c2cccc(F)c2)c2cccc(F)c2)N2CCCCN12` [Example 9, (S)-12-(bis(3-fluorophenyl)methyl)-4-hydroxy-7,8,9,10-tetrahydro-12H-dipyridazino[1,2-a:1′,6′-d][1,2,4]triazine-3,5-dione], the EC50 falls from 0.15 µM to 0.057 µM (2.6-fold). The second is the more potent here.

Going from `O=C1c2c(O)c(=O)cnn2C(C(c2cccc(F)c2)c2cccc(F)c2)N2CCCCCN12` (stereo not shown) [Example 7, 13-(bis(3-fluorophenyl)methyl)-4-hydroxy-8,9,10,11-tetrahydro-7H,13H-pyridazino[1′,6′:4,5][1,2,4]triazino[1,2-a][1,2]diazepine-3,5-dione] to `O=C1c2c(O)c(=O)cnn2[C@H](C(c2cccc(F)c2)c2cccc(F)c2)[C@H]2CCCN12` [Example 15, (9aR,10R)-10-(bis(3-fluorophenyl)methyl)-4-hydroxy-8,9,9a,10-tetrahydro-7H-pyrrolo[1′,2′:4,5]pyrazino[1,2-b]pyridazine-3,5-dione], the EC50 rises from 0.42 µM to 0.88 µM (2.1-fold). The first is the more potent here.

Going from `O=C1c2c(O)c(=O)cnn2[C@H](C(c2ccccc2)c2ccccc2)[C@H]2CCCN12` [Example 11, (9aR,10R)-10-benzhydryl-4-hydroxy-8,9,9a,10-tetrahydro-7H-pyrrolo[1′,2′:4,5]pyrazino[1,2-b]pyridazine-3,5-dione] to `O=C1c2c(O)c(=O)cnn2[C@H](C(c2ccccc2)c2ccccc2)[C@@H]2CCCN12` [Example 12, (9aS,10R)-10-benzhydryl-4-hydroxy-8,9,9a,10-tetrahydro-7H-pyrrolo[1′,2′:4,5]pyrazino[1,2-b]pyridazine-3,5-dione], the EC50 rises from 1.6 µM to > 50 µM.

Going from `O=C1c2c(O)c(=O)cnn2[C@@H](C(c2ccccc2)c2ccccc2)[C@@H]2CCCN12` [Example 13, (9aS,10S)-10-benzhydryl-4-hydroxy-8,9,9a,10-tetrahydro-7H-pyrrolo[1′,2′:4,5]pyrazino[1,2-b]pyridazine-3,5-dione] to `O=C1c2c(O)c(=O)cnn2[C@H](C(c2ccccc2)c2ccccc2)[C@H]2COCCN12` [Example 18, (10aS,11R)-11-benzhydryl-4-hydroxy-7,8,10a,11-tetrahydro-10H-pyridazino[1′,6′:4,5]pyrazino[2,1-c][1,4]oxazine-3,5-dione], the EC50 rises from 0.34 µM to 9.1 µM (27-fold).

Compared with `O=C1c2c(O)c(=O)cnn2[C@@H]([C@H](c2ccccc2)c2cccc(F)c2)[C@H]2CCCN12` [Example 14, (9aR,10S)-10-((R)-(3-fluorophenyl)(phenyl)methyl)-4-hydroxy-8,9,9a,10-tetrahydro-7H-pyrrolo[1′,2′:4,5]pyrazino[1,2-b]pyridazine-3,5-dione], `O=C1c2c(O)c(=O)cnn2[C@H]([C@@H](c2ccccc2)c2cccc(Cl)c2)[C@@H]2CCCN12` [Example 17, (9aS,10R)-10-((S)-(3-chlorophenyl)(phenyl)methyl)-4-hydroxy-8,9,9a,10-tetrahydro-7H-pyrrolo[1′,2′:4,5]pyrazino[1,2-b]pyridazine-3,5-dione] is 3.2-fold higher in EC50: 0.092 µM for the first, 0.29 µM for the second.

`O=C1c2c(O)c(=O)cnn2[C@@H](C(c2cccc(F)c2)c2cccc(F)c2)[C@H]2CCCN12` [Example 16, (9aR,10S)-10-(bis(3-fluorophenyl)methyl)-4-hydroxy-8,9,9a,10-tetrahydro-7H-pyrrolo[1′,2′:4,5]pyrazino[1,2-b]pyridazine-3,5-dione] was tested, and the EC50 was 0.067 µM.
